This is one part of the list. These are further read-outs of the screen, such as a control signal, another cell line or another target. No call is given for them.
What was measured:
Test in all cases: Primary Screen for Target Class Profiling of Small Molecule Inhibitors of Methyltransferases
[1] = molecular target: Glycine N-methyltransferase (Homo sapiens) (UniProt Q14749); conditions: purified enzyme, MTase-Glo SAH luminescence; measured here: GNMT inhibition; at 40 µM; stronger effect = lower value
Excerpt: (§1) PI: Matthew D. Hall Ph.D. and Quinlin M. Hanson Ph.D.
(§2) National Center for Advancing Translational Sciences (NCATS)
(§3) National Institute of Health (NIH), Rockville, MD
(§4) Target class profiling (TCP) is a chemical biology approach amenable to investigating understudied biological targets. TCP is achieved by developing a generalizable assay platform and applying it to screen a curated set of compound libraries against representative members of a target class. Small molecule methyltransferases (SMMTase) are a subclass of methyltransferase that act on metabolites to modulate signaling pathways, metabolize xenobiotics, or balance the available methyl pool. We screened four curated libraries totaling 27,574 unique compounds against the SMMTases nicotinamide N-methyltransferase (NNMT), phenylethanolamine N-methyltransferase (PNMT), histamine N-methyltransferase (HNMT), glycine N-methyltransferase (GNMT), catechol O-methyltransferase (COMT), and guanidinoacetate N-methyltransferase (GAMT). The data generated by this TCP can be leveraged for informed tool molecule development. For example, in the associated publication we identified a chemotype of HNMT-selective inhibitors. Additionally, we identified a putative SMMTase-selective inhibitor with potential as a tool molecule for studying broader methyltransferase biology.
(§5) High-through put screening assays were developed at the National Center for Advancing Translational Science (NCATS) for the enzymes NNMT, PNMT, HNMT, GNMT, COMT, and GAMT. Enzymatic activity was measured as a function of SAM cofactor conversion using the MTase Glo kit (Promega) for all enzymes. All assays were performed in 1536-well format with substrates and SAM concentrations at KM values. Enzyme concentration and assay timing were optimized for 10-20% SAM conversion. Initial screening of 27,574 compounds was done as single-point assays using the highest compound concentration (40 uM). […] These compounds were replated in 11-point dose response and assayed against NNMT, PNMT, HNMT, GNMT, COMT, GAMT, and a counter-assay. The IC50 and efficacy (maximal response) values were determined for each dose-response curve. These values are also accounted for in the area under the curve (AUC) values.
(§6) PROTOCOL TABLE (as described by Inglese J, Shamu CE and Guy RK. 2007)
(§7) SEQUENCE No. (e.g., 1, 2, 3, etc.); […] (e.g., Cells, Incubation, Reagent, etc.); VALUE; DESCRIPTION.
(§8) 1; Reagent; 2 uL; SMMTase Enzyme (2x) in reaction buffer, columns 1- 48.
(§9) 2; Reagent; 1 uL; SAM (4x) in reaction buffer, columns 1-48.
(§10) 3; Controls; 23 nL; DMSO in column 4; sinefungin in DMSO (0 uM - 40 uM) in 7-point 1:2 dilution series (n = 2) in column 2.
(§11) 4; Compounds; 23 nL; Columns 5-48.
(§12) 5; Reagent; 1 uL; Substrate (4x) in reaction buffer, columns 2-48.
(§13) 6; Time; 20-30 min; Incubation.
(§14) 7; Reagent; 1 uL; MTase-Glo reagent (5X), columns 1-48.
(§15) 8; Time; 30 min; Incubation.
(§16) 9; Reagent; 5 uL; MTase-Glo Detection reagent, columns 1-48.
(§17) 10; Time; 30 min; Incubation, luminescence evolution.
(§18) 11; Detection; Luminescence; ViewLux uHTS Microplate Imager (PerkinElmer).
(§19) NOTES (numbers refer to Sequence numbers above)
(§20) 1, 2, 5. White Medium Binding Greiner 1536-well plates (Cat #789175-F, Greiner Bio-One, Monroe, NC); Reaction buffer: 50 mM Tris, pH 8.0, 3 mM MgCl2, 1 mM EDTA, 50 mM NaCl, 1 mM DTT, and 0.1 mg/mL BSA. Evaporation was prevented by covering assay plates with metal lids containing holes to allow gas diffusion.
(§21) 1. Six SMMTase were profiled: HNMT, GNMT, PNMT, COMT, NNMT, GAMT
(§22) 5. The corresponding substrate was used for each enzyme: HNMT - 5.3 uM Histamine; GNMT - >500 uM Glycine; PNMT - 16.2 uM Norephinephrine; COMT - 13.7 uM Norephinephrine; NNMT - 3.8 uM Nicotinamide; GAMT - 2.5 uM Guanidinoacetate.6, 8, 10. Room temperature
(§23) 6. Final reaction conditions: 10 nM COMT, 5 uM SAM, 15 uM norepinephrine, 50 mM Tris, pH 8.0, 3 mM MgCl2, 1 mM EDTA, 50 mM NaCl, 1 mM DTT, and 0.1 mg/mL BSA; refer to tables 2 and S1 for specific timing.
8. […]

[2] = molecular target: Guanidinoacetate N-methyltransferase (Homo sapiens) (UniProt Q14353); conditions: purified enzyme, MTase-Glo SAH luminescence; measured here: GAMT inhibition; at 40 µM; stronger effect = lower value
Excerpt: as §1, §2, §3, §4, §5, §6, §7, §8, §9, §10, §11, §12, §13, §14, §15, §16, §17, §18, §19, §20, §21, §22, §23
8. […]

[3] = molecular target: Histamine N-methyltransferase (Homo sapiens) (UniProt P50135); conditions: purified enzyme, MTase-Glo SAH luminescence; measured here: HNMT inhibition; at 40 µM; stronger effect = lower value
Excerpt: as §1, §2, §3, §4, §5, §6, §7, §8, §9, §10, §11, §12, §13, §14, §15, §16, §17, §18, §19, §20, §21, §22, §23
8. […]

[4] = molecular target: Nicotinamide N-methyltransferase (Homo sapiens) (UniProt P40261); conditions: purified enzyme, MTase-Glo SAH luminescence; measured here: NNMT inhibition; at 40 µM; stronger effect = lower value
Excerpt: as §1, §2, §3, §4, §5, §6, §7, §8, §9, §10, §11, §12, §13, §14, §15, §16, §17, §18, §19, §20, §21, §22, §23
8. […]

[5] = molecular target: Phenylethanolamine N-methyltransferase (Homo sapiens) (UniProt P11086); conditions: purified enzyme, MTase-Glo SAH luminescence; measured here: PNMT inhibition; at 40 µM; stronger effect = lower value
Excerpt: as §1, §2, §3, §4, §5, §6, §7, §8, §9, §10, §11, §12, §13, §14, §15, §16, §17, §18, §19, §20, §21, §22, §23
8. […]
% is scaled to controls: 0 for no effect and ±100 for the full control effect.

| Structure (SMILES) | activity change, negative = inhibition [1] [%] | activity change, negative = inhibition [2] [%] | activity change, negative = inhibition [3] [%] | activity change, negative = inhibition [4] [%] | activity change, negative = inhibition [5] [%] |
| --- | --- | --- | --- | --- | --- |
| COc1cccc(N2CCN(C(=O)c3ccc4c(=O)nc5c(-c6ccccc6)n[nH]n5c4c3)CC2)c1 | -8.01 | 0.966 | 2.45 | 0.039 | 1.12 |
| CCCn1c(=O)c2ccc(C(=O)NC3CCCC3)cc2n2c(=O)n(CC(=O)Nc3cccc(CC)c3)nc12 | 7.8 | 2.13 | 12.8 | 7.4 | 7.75 |
| O=C(c1ccccc1)N1Cc2[nH]cnc2C[C@H]1c1nc(-c2ccc(Cl)cc2)no1 | -12.8 | -5.78 | -7.9 | -24.4 | -5.91 |
| Cc1ccc(N2C(=O)c3cc4sccc4n3CC2(C)C(=O)NC2CCC(C)CC2)c(C)c1 (centres undefined) | 2.68 | 0.786 | 4.62 | 0.597 | -2.61 |
| CCc1ccc(NC(=O)c2cc3n(n2)CC(C)(C(=O)NC2CCCCCC2)N(C)C3=O)cc1 (centres undefined) | -0.025 | 4.3 | 6.34 | 1.61 | 1.75 |
| C[C@@H]1O[C@@H](O[C@H]2[C@H](OC(=O)[C@]34CCC(C)(C)C[C@H]3C3=CCC5[C@@]6(C)C[C@@H](O)[C@@H](O)[C@@](C)(CO)C6[C@H](O)C[C@@]5(C)[C@]3(C)CC4)OC[C@H](O)[C@@H]2O)[C@H](O)[C@H](O)[C@H]1O[C@@H]1OC[C@@H](O)[C@H](O[C@H]2O[C@H](C)[C@@H](O)[C@H](O)[C@@H]2O)[C@H]1O (some centres undefined) | 4.51 | 17.1 | 13.1 | 2.89 | 10.7 |
| Clc1ccc(Nc2nc3ccccc3c3nc(C4CCCCC4)[nH]c23)cc1Cl | -4.37 | -10 | 4.58 | -24.1 | -5.24 |
| Cc1cc(C(=O)N2CC(F)(F)C[C@H]2c2nnc(C)o2)no1 | 0.622 | 1.92 | 2.56 | -1.33 | 1.52 |
| CCOC(=O)c1cc2n(n1)CC(C)(C(=O)NC1CCCCC1)N(Cc1cccc(C)c1)C2=O (centres undefined) | 2 | 0.404 | 0.677 | 6.91 | -0.549 |
| COc1cc(OC)c(/C=C2\C(=O)Nc3ccccc32)c(OC)c1 | – | 1.47 | – | -34 | 0.744 |
| CCC1c2ccc(C)n2CCN1C(=O)Nc1ccc(C)cc1Cl (centres undefined) | 0.713 | 0 | 5.34 | 1.15 | 1.31 |
| O=C(OC[C@H]1O[C@@H](Oc2ccccc2COC(=O)C2(O)C=CCCC2O)[C@H](O)[C@@H](O)[C@@H]1O)c1ccccc1 (some centres undefined) | -4.56 | 4.39 | 2.39 | -8.3 | 2.01 |
| CC(=O)N1CCN(C(=O)c2ccc3oc(-c4ccncc4Cl)nc3c2)CC1 | -4.35 | 0.959 | -1.48 | -7.52 | -0.448 |
| CC1CCC2(CO)C(C(=O)O)=CCCC2C1(C)CCc1ccoc1 (centres undefined) | -3.44 | -4.57 | 5.14 | -18.5 | -6.9 |
| CC(C)n1c(=O)c2ccc(C(=O)NC3CCCC3)cc2n2c(=O)n(Cc3cccc(F)c3)nc12 | 2.57 | 0 | 9.18 | 6.1 | 5 |
| COc1ccccc1NC(=O)CSc1nnc2n(Cc3ccc(F)cc3)c(=O)c3ccccc3n12 | 6.73 | 1.56 | 14.1 | 8.09 | 7.99 |
| CC(=O)[C@H]1CC[C@H]2[C@@H]3C=CC4=CC(=O)CC[C@@]4(C)[C@@H]3CC[C@]12C | 2.98 | -1.03 | -2.45 | -15.3 | -6.75 |
| CCOc1ccc(Nc2nc(-c3c(C)nc4ccccn34)cs2)cc1 | -2.56 | 1.09 | 3.69 | -29 | -2.28 |
| O=C(NC1CCCC1)C1c2cccn2CC(=O)N1c1cccc(Cl)c1 (centres undefined) | 12.5 | 0 | 9.06 | 1.78 | 1.78 |
| CN1CCOC[C@H]2CCN(C(=O)c3cccc4[nH]ccc34)C[C@H]21 | -4.07 | -4.63 | -4.17 | -5.56 | -4.69 |
| COc1ccccc1C(=O)N1CCC(C(=O)N2CCC(c3nc4ncccc4[nH]3)C2)CC1 (centres undefined) | -3.77 | -8.38 | -2.98 | -15.8 | -11.2 |
| Cc1ccc(C(=O)Cn2nc3n(C(C)C)c(=O)c4ccc(C(=O)NC5CCCC5)cc4n3c2=O)c(C)c1 | -2.03 | -5.5 | 1.84 | -4.16 | -4.99 |
| CC(C)(C)C(=O)NCCNC(=O)c1cccc(-c2ccc(C(F)(F)F)cc2)c1 | -2 | 0.332 | 2.58 | -11.6 | 1.45 |
| CC1CCN(S(=O)(=O)c2ccc3c(ccn3CCC(=O)NC(C)C)c2)CC1 | 1.4 | 5.26 | -2.47 | 0.633 | -0.702 |
| C[C@@]12C[C@]3(O)O[C@H](O1)[C@]1(COC(=O)c4ccccc4)[C@H]3C[C@@]12O[C@@H]1O[C@H](CO)[C@@H](O)[C@H](O)[C@H]1O | 6.21 | 5.2 | 13.4 | -7.09 | 6.3 |
| COCCCN1C(=O)c2cc3sccc3n2CC1(C)C(=O)NC1CCCCCCC1 (centres undefined) | 4.58 | 0.248 | 8.85 | 4.08 | 5.81 |
| CC(C)n1cc(C(=O)NCc2cccnc2Oc2ccc(F)cc2F)cn1 | -5.44 | -7.54 | -2.19 | -6.87 | 1.67 |
| Nc1nc(CC(=O)Nc2ccc(CCNC[C@H](O)c3ccccc3)cc2)cs1 | – | -3.11 | – | -33.4 | -21.1 |
| Cc1cc(Nc2cccc(Cl)c2)nc2ccc(NC(=O)Cc3cccc(C(F)(F)F)c3)cc12 | – | -25.9 | – | -29.1 | -5.03 |
